Over roughly 33,000 sequences, “E-score (dimensionless, -0.5 to 0.5)” has its median near -0.058; the highest 2% begin near 0.35. This is one part of the list.
What follows are sequences tested on MvaT (assay: PBM 8-mer E-score (mean of HK and ME arrays) (E-score (dimensionless, -0.5 to 0.5)); higher = stronger relative binding preference; most listed sequences are background and not binding sites).
Procedure, shortened: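 Reported values are rank-based E-scores, taken as the mean of two universal arrays and parsed with a custom script. Each 8-mer score falls between -0.5 and 0.5. The arrays, ME and HK, were double-stranded 60-mers with a constant 25-mer primer region and a variable 35-mer region covering all 8-mers. They were probed, by an earlier protocol, with full-length P. aeruginosa MvaT carrying an N-terminal glutathione S-transferase fusion.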

Sequence	PBM 8-mer E-score
ACTTTGAT	0.114
AAAAATAG	0.0973
AATGGTAC	0.129
GGTGCTGA	-0.124
AGCCGTCC	-0.199
ACATCCAC	0.0934
GGGAGCGA	-0.224
GATCTAAA	0.0578
ATCACTCA	0.133
ACTAGAGG	-0.105
CCGAGTGA	-0.146
GATACTCA	-0.0124
GACTCGCC	-0.136
CATCTGGG	-0.185
GCTTAGCC	-0.258
GGGATGCA	-0.112
ACAATCTA	0.155
AGACACGA	-0.182
ATCTACCG	-0.0721
TGACTGAA	0.0636
AACTAGAG	-0.019
CGCACACC	-0.0751
ACGGCTTA	0.0112
AATTACAA	0.367
AACATAAA	0.286

Sequence	PBM 8-mer E-score
GGGGACGA	-0.14
AGATTTAT	0.232
ACAACACG	0.00247
CCATACGG	-0.228
TTAGGCAA	0.023
ATTAGTCG	0.0683
CACATCAG	-0.0164
GGGTAGTA	-0.0229
AGTACGCC	-0.234
ACGGTCTC	-0.16
CCTAACAC	-0.0549
CGGCTTAG	-0.15
ACTCCCTA	0.0147
AATTTGTG	0.102
AAGGACAA	0.0885
AAACTTCT	0.272
GGCAAGCC	-0.339
TAGCGCAA	-0.0182
GCGTATTA	0.193
GTAGCGCA	-0.142
CCGGCTAA	-0.0917
CTGGGACA	-0.14
AACGCACT	-0.00127
GACTAGCA	-0.207
AATCGAAT	0.0272

Sequence	PBM 8-mer E-score
GCCCAGGA	-0.233
TAACTATA	0.336
GCGGCAGC	-0.249
CTGCCGCA	-0.175
CTATAATC	0.295
ACGCTGTA	-0.185
CTTTAGAA	0.159
ACGTAGGA	-0.148
GGCGAAAA	0.118
AGCAGAGA	-0.146
ACGAAATG	0.034
AGCGCCGC	-0.252
CACCCGAA	-0.204
AATGCCGA	-0.104
GTCGTCGA	-0.115
AGAAGGCA	-0.201
CCGAGCAC	-0.121
GCATTTAA	0.326
CCATCGCG	-0.214
GAAGTCCA	-0.139
AGTTTCGC	0.0462
ACCTTAAC	0.0724
GGTGTATA	0.127
GATGCCAC	-0.247
ATTAAGAG	0.297

Sequence	PBM 8-mer E-score
ACCAGCCC	-0.143
AACCGTCC	-0.105
AGCGCGGG	-0.347
CCGAAGCA	-0.136
CAACATTG	0.0214
CACCACAC	-0.0372
CGTGACAG	-0.131
ATCCGACA	-0.132
GACTTTCC	-0.0101
AGACGATG	-0.178
CATGTAGA	0.0372
GCTGGATA	-0.0729
ATCTGCAC	-0.152
CCCGCTAA	-0.161
ACCAGGCC	-0.273
TAAATCGA	0.182
CAGTGGGG	-0.207
GAGGAAAC	-0.144
CTGCTGTC	-0.222
ATCGAGTC	-0.0107
AACAGATA	0.157
ACCTATAA	0.208
GACTTACA	0.0985
CACTAGTA	0.152
GATGCCTA	-0.224

Sequence	PBM 8-mer E-score
GCGGTGCC	-0.188
CGGTTGAC	-0.092
AGATTCTG	-0.0938
GATTGCGA	-0.0169
CATATCAG	0.0279
CAGACCCA	-0.0878
CTGCTAGA	-0.212
CGTAAAGA	0.0321
CCCGGCCG	-0.179
GCGTCCTA	-0.11
AATACTGG	0.12
CCCAGCAC	-0.209
CATACATC	0.0581
GGGTACCC	-0.345
CAAAGCCA	-0.0918
AGGGGAGG	-0.325
ATCCACAT	0.0886
AAACAGTG	0.0852
CGCGGTGC	-0.206
CTTCCTGA	0.0262
AGCGTCCA	-0.149
AATATTTG	0.349
CAACTTCG	0.227
ACCCGACA	-0.206
CCTATATA	0.35

Sequence	PBM 8-mer E-score
CGATTGAC	-0.0965
ATACGGGA	-0.0541
AGACTCCG	-0.168
CAAGCTAA	-0.065
ACGCCAGA	-0.195
CATAGCCC	-0.211
ATAAACTG	0.175
TAGAATAA	0.306
CCGGAAGG	-0.282
AACTATGC	0.156
CTTTAACC	0.0678
ACGTTGAG	-0.16
AAGCCAAA	-0.0347
AAATTATA	0.45
CATCTGGC	-0.194
CTGGAATC	-0.104
TCATTGAA	0.0579
GAGCGGGA	-0.271
CATTTCGA	0.159
CACAGGCC	-0.19
GGGCACAC	-0.131
AAATGCTG	0.0079
AGCGATGG	-0.275
GAATAAGA	0.201
CTGGCCGC	-0.21

Sequence	PBM 8-mer E-score
CTCAGTAA	-0.000396
AATTAAGC	0.328
CCTGAGTA	-0.224
CTTGGTGA	-0.0334
ACCTACAG	-0.152
CTCCGTGA	-0.0547
ACATACAG	0.111
CCAATTAC	0.237
AATGGTAG	0.102
GTCGCTGA	-0.129
GACCACAA	-0.0932
CATCAAGG	-0.195
GTACTAAC	0.174
CCGAAAAC	-0.103
AAGACTGA	0.0304
GAGACTAC	-0.0909
ACGGCAAA	0.0774
AGCCCCCC	-0.303
CAATATCG	0.18
ACCCTTTA	0.0505
CCATTACA	0.038
CGGAGCCA	-0.2
